According to the BET-seq Pho4 binding data (Le et al. 2018):
The other results are listed elsewhere or left out. The energies were worked out here from pooled read counts, against the library average; single values are noisy.

These sequences were tested against T1, Pho4 (S. cerevisiae) (UniProt P07270) (assay: relative binding free energy (BET-seq); higher = weaker binding). Conditions: reference: library average.
T1 sequence: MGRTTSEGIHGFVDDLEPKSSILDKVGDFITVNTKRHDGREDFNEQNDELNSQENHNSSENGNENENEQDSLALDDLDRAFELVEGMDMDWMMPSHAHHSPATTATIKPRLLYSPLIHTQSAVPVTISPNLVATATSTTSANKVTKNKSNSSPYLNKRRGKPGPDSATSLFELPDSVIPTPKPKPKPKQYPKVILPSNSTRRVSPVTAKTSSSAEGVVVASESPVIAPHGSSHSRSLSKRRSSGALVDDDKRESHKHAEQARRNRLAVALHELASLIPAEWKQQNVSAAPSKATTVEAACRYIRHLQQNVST

Sequence | relative binding free energy [kcal/mol]
GGGCACACGTGGTAGG | 0.06
TAAGTCACGTGACTTT | 0.2
AGGGCCACGTGCGTGA | -0.17
TAGGCCACGTGAAGTT | 0.14
GTGGGCACGTGAGTGG | 0.23
GAGTTCACGTGAAGAT | 0.54
CGTGGCACGTGTTACT | -0.08
GCGTTCACGTGTGGTA | 0.28
GGGATCACGTGGGGTA | 0.06
AGTGACACGTGGAGTA | -0.1
TAGGTCACGTGAAGGC | 0.37
TGAAGCACGTGATATT | 0.12
GTTAGCACGTGTAAAG | 0.02
TTTTGCACGTGTCAGG | 0.06
ATGTTCACGTGGGTCC | 0.27
CTGTGCACGTGGTAAT | -0.12
TACGTCACGTGGATGG | 0.25
CTTTGCACGTGGTTAA | -0.16
TGGTTCACGTGATATA | 0.36
TGGGGCACGTGCCTGT | -0.2
TGTATCACGTGACGTA | 0.14
CTTTACACGTGTGAAT | 0.33
GGGTACACGTGATAGT | 0.34
TGTGCCACGTGATATG | 0.03
CGTTTCACGTGAGTAA | 0.32
CAGGGCACGTGTCGTT | 0.03

Sequence | relative binding free energy [kcal/mol]
TTTGACACGTGATGGG | 0.15
GGAAACACGTGGGGCG | -0.02
TGCGGCACGTGCTGTG | -0.19
AATCGCACGTGAGGGG | 0.21
AGCGGCACGTGGTCTG | -0.18
AGAGGCACGTGACGGT | -0.06
AGGGTCACGTGCGTAC | 0.05
ACGTTCACGTGGGTAG | 0.1
TTTATCACGTGTGATG | 0.27
ATGGACACGTGGAGTA | 0.1
TTGTGCACGTGGAGAT | 0.01
GTGAGCACGTGTGTTC | -0.18
GTAGGCACGTGTATAA | -0.03
GTGATCACGTGCGTTG | -0.01
TGGACCACGTGTTTTT | 0.05
GTGCACACGTGGCAGG | 0.04
ATTTACACGTGTGGTA | 0.09
TTGGGCACGTGTTCAG | -0.2
TTTTGCACGTGGTGGC | 0.02
GGATACACGTGGGGCT | 0.01
TTTGGCACGTGGCGTT | -0.11
TTCAACACGTGTTAGG | 0.09
GCTTTCACGTGACGGT | 0.3
TTGCACACGTGTTAGA | 0.15
TTTGGCACGTGGGGCC | -0.28
ATGGGCACGTGCGGTC | -0.06

Sequence | relative binding free energy [kcal/mol]
GATGGCACGTGTTGTC | -0.01
TGTAACACGTGGCGTT | -0.15
TTATTCACGTGCGTGC | 0.13
GCTGTCACGTGGATAT | 0.12
ATCGCCACGTGTGTTG | -0.02
TGTCTCACGTGAGAGG | 0.18
TTTAACACGTGTTTTC | -0.03
GGTCGCACGTGCGTTA | -0.07
ACTAGCACGTGATGTG | 0.04
AGGTTCACGTGGGTAT | 0.08
TGTGTCACGTGTCAAG | 0.07
GAAAGCACGTGTGGTG | -0.1
TTTTACACGTGGTCTG | -0.03
GATTGCACGTGAGTCG | 0.49
GGACGCACGTGGGTAT | -0.16
TGTGGCACGTGGCGAT | -0.07
CATTACACGTGGTCGT | 0.06
GGTATCACGTGCTGGA | 0.18
TCATGCACGTGTGGAG | 0.09
GGTGTCACGTGGCGAC | 0.11
TGGGTCACGTGGGTCC | 0.03
GCTAACACGTGGGTGT | -0.16
ATGTACACGTGTGTAG | 0.04
GAGGGCACGTGTCGGA | -0.02
GAAGGCACGTGTTAAG | 0.1
AGCGGCACGTGTATAT | 0.01

Sequence | relative binding free energy [kcal/mol]
GGACGCACGTGGAGTG | -0.14
GGAATCACGTGCTGGT | 0.11
TATGGCACGTGTTGTG | -0.11
TCTTTCACGTGGGGGC | 0.14
TCATGCACGTGGTGTT | -0.14
AAGAGCACGTGTTGGA | -0.21
CTGTTCACGTGTGAGT | 0.39
TCTGTCACGTGGGCGG | -0.04
GGTTCCACGTGGTTCT | 0.09
GGTGACACGTGATATG | 0.13
CTGTTCACGTGAAGTA | 0.41
AGATGCACGTGGGGAG | -0.2
TTTAGCACGTGTAATC | 0.04
AAATTCACGTGGGTTA | 0.24
TGTCTCACGTGGTGGA | 0.22
GTGTTCACGTGGCGTC | 0.13
GATTGCACGTGTGTCT | 0.23
TGTAGCACGTGGCCGG | -0.32
GAGTTCACGTGTGCTG | 0.35
AGTGTCACGTGACAGG | 0.1
GGCTACACGTGGGTAT | 0.09
TCAGACACGTGGGTGT | 0.02
CAGGCCACGTGGGTGG | -0.32
TTGTGCACGTGTAGAT | 0.23
TCAGTCACGTGTTGAA | 0.14
TAGGTCACGTGTGGTC | 0.19

Sequence | relative binding free energy [kcal/mol]
AGTGCCACGTGTAGTA | -0.08
CGGTGCACGTGTTTAA | 0.08
CAGGACACGTGGTTTT | 0.02
GAGGTCACGTGCATGT | 0.28
ACTTACACGTGTATGT | 0.12
GGGGTCACGTGTACTT | 0.22
GGGGGCACGTGGTCGC | -0.25
TGAGACACGTGTCGGT | 0.01
AGACGCACGTGGGAGT | -0.19
CTTGGCACGTGCCGGG | -0.29
GGATGCACGTGTTCTA | 0.1
CTAGTCACGTGATTGA | 0.24
AGGGGCACGTGCATGG | -0.21
TAGGGCACGTGGTGTA | -0.17
AGGTTCACGTGAAATC | 0.56
TTGAACACGTGGGTGA | -0.06
TAAGGCACGTGTGCGT | 0
TTGGTCACGTGCTTCT | 0.13
GATCTCACGTGGGGTA | 0.05
GTGTGCACGTGACAGG | 0.08
CGTTGCACGTGTAGCG | 0.06
TTGAGCACGTGGAGGA | -0.23
TTGGGCACGTGCGCAT | -0.21
GGCTACACGTGCGGTT | 0.06
GGTAGCACGTGTCTAG | -0.08
CGTAACACGTGTTTGT | -0.04

Sequence | relative binding free energy [kcal/mol]
TATGGCACGTGTATGA | -0.18
GTTAGCACGTGAGGTA | 0.3
CTAGTCACGTGAGTTT | 0.25
TTTTTCACGTGCAGGC | 0.27
AGTATCACGTGAGAAG | 0.34
TTATGCACGTGATTTT | 0.16
TAGGCCACGTGTTATG | -0.06
GTATGCACGTGCGGTG | -0.01
GGAGGCACGTGGCGAA | -0.2
GGTGGCACGTGGGTCG | -0.19
GGCGTCACGTGTAAGA | 0.27
GTACTCACGTGTGTAG | 0.14
GTGTACACGTGTTGAG | 0.15
GTGTACACGTGCTTTT | 0.08
CGGGGCACGTGCGTAG | -0.23
TATATCACGTGAAGTA | 0.32
ATGGGCACGTGATGGA | 0
AGGTTCACGTGGCCAT | 0.35
AGAGTCACGTGGGATG | 0.04
TTATGCACGTGGGCTA | -0.13
GTAGTCACGTGGAACG | 0.26
CTCGACACGTGTGGGT | -0.03
TTTCCCACGTGGTGTA | -0.01
ACTGACACGTGTTGGG | 0.05
TGAGGCACGTGTAGAA | -0.12
CTAGTCACGTGGTTTG | 0.09

Sequence | relative binding free energy [kcal/mol]
GGAACCACGTGTTTTG | 0.11
GTCGGCACGTGTTTTC | 0.13
GAGAGCACGTGTTTAG | -0.12
TGACGCACGTGGTGTG | -0.31
TTCAGCACGTGTGGAT | -0.04
GTTGACACGTGGTATG | -0.03
AAGGTCACGTGTTAGG | 0.02
TAGATCACGTGGTGTA | 0.07
GTGACCACGTGGGGGT | -0.24
TTCGACACGTGTTTGT | 0.09
GGTGTCACGTGGGGCG | -0.03
AAAAGCACGTGAGAGG | 0.25
GAAGGCACGTGGAAGT | -0.12
AGTGTCACGTGAGGCA | 0.13
GGAATCACGTGTCGGT | 0.23
GGAGTCACGTGGGACA | 0.01
CTTGACACGTGGTGCG | -0.02
TGCGGCACGTGGGTGA | -0.27
GGTATCACGTGTGTGC | 0.24
TCTATCACGTGTAATG | 0.31
TATATCACGTGTAAGC | 0.23
TGGAGCACGTGCTCGG | -0.16
GAGATCACGTGATTGA | 0.39
TCGTTCACGTGCGTGT | 0.03
CTTGACACGTGTGCGG | 0.09
ATGTCCACGTGGCGTT | -0.06

Sequence | relative binding free energy [kcal/mol]
CGGATCACGTGCGTGG | 0.04
TTTGTCACGTGTACTG | 0.06
GATCGCACGTGGTCGG | -0.02
GTAAACACGTGTGAGT | 0.04
CGTTTCACGTGCAGTT | 0.24
GCTTTCACGTGCTTGG | 0.2
ACTTGCACGTGATTAT | 0.13
ATTTTCACGTGGGTTC | 0.27
ATGCACACGTGGTGTT | 0.01
GATATCACGTGTGGGC | 0.17
GACGTCACGTGCGGGG | 0.11
AGTTGCACGTGAGTAT | 0.04
TTGTACACGTGCTAGG | -0.14
GGTAACACGTGGATGA | 0.05
TTTTTCACGTGCGGTA | 0.32
AGGTCCACGTGGCGGG | -0.06
CTGTGCACGTGGAGCG | -0.09
GGGCACACGTGTAGGT | 0.24
GGATTCACGTGGTGTC | 0.31
CGGTTCACGTGGGTAG | 0.11
GCGTGCACGTGTTTTG | 0.02
ATTTGCACGTGGAAAT | 0.06
TTGGGCACGTGGATAG | -0.07
AGTCACACGTGCTGTG | 0.14
GGTTTCACGTGCAATT | 0.29
TTAGGCACGTGAGATG | 0.08

Sequence | relative binding free energy [kcal/mol]
AATGGCACGTGCTGTG | -0.18
CGTAGCACGTGGTCAT | 0.02
AGCGACACGTGTGGTA | -0.01
TGTGACACGTGTGTGC | -0.05
TGTCTCACGTGGAGGC | 0.22
ATTTACACGTGTTTGG | 0.06
ACTGGCACGTGTAGTA | 0.01
GTGGTCACGTGGAGAG | 0.15
GGGGCCACGTGATGTA | 0.09
GTATCCACGTGCTTGT | 0.23
AATTTCACGTGAAGGT | 0.2
GTGATCACGTGGATCT | 0.09
ATTAGCACGTGTGGGT | -0.01
GGTAGCACGTGGCAGC | -0.12
GGTTTCACGTGCTTAT | 0.32
GGGTCCACGTGGGTTT | 0.12
CGCTTCACGTGATGGG | 0.19
GCAAACACGTGTAGGG | 0.14
TGGTGCACGTGGATTT | 0.11
TATAGCACGTGTGCGA | -0.06
CAGTTCACGTGTTCGG | 0.5
AAATTCACGTGAATTG | 0.4
